# Data: the supplement of paper PMC8728848
# This is one part of the list.
# B1: AICL (Homo sapiens), Q92478 (protein)
# chain: MMTKHKKCFIIVGVLITTNIITLIVKLTRDSQSLCPYDWIGFQNKCYYFSKEEGDWNSSKYNCSTQHADLTIIDNIEEMNFLRRYKCSSDHWIGLKMAKNRTGQWVDGATFTKSFGMRGSEGCAYLSDDGAATARCYTERKWICRKRIH
# Assays:
# Test in all cases: glycan array binding signal (z-score within array); higher = stronger binding
# Details in all cases: glycan notation: IUPAC condensed, linker removed
# [1] = molecular target: GlcNAc(b1-4)GlcNAc(b1-4)GlcNAc(b1-4)GlcNAc(b1-4)GlcNAc
# Method in brief: (§1)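 Glycan array data came from 3228 arrays in the Consortium for Functional Glycomics database, and only arrays with an available protein sequence were kept. Glycan names were put into IUPAC-condensed notation, and columns mapping to the same glycan were averaged. The binding signal is a within-array Z-score, averaged across arrays of one protein sequence run at different concentrations or buffers and across linkers. A negative Z-score can be read as non-binding.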
# [2] = molecular target: GlcNAc(b1-4)GlcNAc(b1-4)GlcNAc(b1-4)GlcNAc(b1-4)GlcNAc(b1-4)GlcNAc
# Method in brief: as §1
# [3] = molecular target: GlcNAc(b1-4)[GlcNAc(b1-6)]GalNAc
# Method in brief: as §1
# [4] = molecular target: GlcNAc(b1-6)Gal(b1-4)GlcNAc
# Method in brief: as §1
# [5] = molecular target: GlcNAc(b1-6)GalNAc
# Method in brief: as §1
# [6] = molecular target: Kdn(a2-3)Gal(b1-3)GlcNAc
# Method in brief: as §1
# [7] = molecular target: Kdn(a2-3)Gal(b1-4)GlcNAc
# Method in brief: as §1
# [8] = molecular target: Man(a1-2)Man(a1-2)Man(a1-3)Man
# Method in brief: as §1
# [9] = molecular target: Man(a1-2)Man(a1-2)Man(a1-6)[Man(a1-3)]Man
# Method in brief: as §1
# [10] = molecular target: Man(a1-2)Man(a1-3)Man
# Method in brief: as §1
# [11] = molecular target: Man(a1-2)Man(a1-3)[Man(a1-2)Man(a1-6)]Man
# Method in brief: as §1
# [12] = molecular target: Man(a1-2)Man(a1-3)[Man(a1-2)Man(a1-6)]Man(a1-6)[Man(a1-2)Man(a1-2)Man(a1-3)]Man(b1-4)GlcNAc(b1-4)GlcNAc
# Method in brief: as §1
# [13] = molecular target: Man(a1-2)Man(a1-3)[Man(a1-6)]Man(a1-6)[Man(a1-2)Man(a1-3)]Man(b1-4)GlcNAc(b1-4)GlcNAc
# Method in brief: as §1
# [14] = molecular target: Man(a1-2)Man(a1-6)[Man(a1-3)]Man(a1-6)[Man(a1-2)Man(a1-2)Man(a1-3)]Man(b1-4)GlcNAc(b1-4)GlcNAc
# Method in brief: as §1
# [15] = molecular target: Man(a1-3)[Man(a1-6)]Man
# Method in brief: as §1
# [16] = molecular target: Man(a1-3)[Man(a1-6)]Man(a1-6)[Man(a1-2)Man(a1-3)]Man(b1-4)GlcNAc(b1-4)GlcNAc
# Method in brief: as §1
# [17] = molecular target: Man(a1-3)[Man(a1-6)]Man(a1-6)[Man(a1-3)]Man(b1-4)GlcNAc(b1-4)GlcNAc
# Method in brief: as §1
# [18] = molecular target: Man(a1-3)[Man(a1-6)]Man(b1-4)GlcNAc(b1-4)GlcNAc
# Method in brief: as §1
# [19] = molecular target: Man(b1-4)GlcNAc
# Method in brief: as §1
# [20] = molecular target: Neu5Ac(a2-3)Gal
# Method in brief: as §1
# [21] = molecular target: Neu5Ac(a2-3)Gal(b1-3)GalNAc
# Method in brief: as §1
# [22] = molecular target: Neu5Ac(a2-3)Gal(b1-3)GalNAc(b1-3)Gal(a1-4)Gal(b1-4)Glc
# Method in brief: as §1
# [23] = molecular target: Neu5Ac(a2-3)Gal(b1-3)GalNAc(b1-3)Gal(b1-4)GlcNAc
# Method in brief: as §1
# [24] = molecular target: Neu5Ac(a2-3)Gal(b1-3)GalNAc(b1-4)[Neu5Ac(a2-3)]Gal(b1-4)Glc
# Method in brief: as §1
# [25] = molecular target: Neu5Ac(a2-3)Gal(b1-3)GalNAc6S
# Method in brief: as §1
# [26] = molecular target: Neu5Ac(a2-3)Gal(b1-3)GlcNAc
# Method in brief: as §1
# [27] = molecular target: Neu5Ac(a2-3)Gal(b1-3)GlcNAc6S
# Method in brief: as §1
# [28] = molecular target: Neu5Ac(a2-3)Gal(b1-3)[Fuc(a1-4)]GlcNAc
# Method in brief: as §1
# [29] = molecular target: Neu5Ac(a2-3)Gal(b1-3)[Fuc(a1-4)]GlcNAc(b1-3)Gal(b1-4)[Fuc(a1-3)]GlcNAc
# Method in brief: as §1
# [30] = molecular target: Neu5Ac(a2-3)Gal(b1-3)[Neu5Ac(a2-3)Gal(b1-4)]GlcNAc
# Method in brief: as §1
# [31] = molecular target: Neu5Ac(a2-3)Gal(b1-3)[Neu5Ac(a2-6)]GalNAc
# Method in brief: as §1
# [32] = molecular target: Neu5Ac(a2-3)Gal(b1-4)Glc
# Method in brief: as §1
# [33] = molecular target: Neu5Ac(a2-3)Gal(b1-4)GlcNAc
# Method in brief: as §1
# [34] = molecular target: Neu5Ac(a2-3)Gal(b1-4)GlcNAc(b1-3)Gal(b1-4)GlcNAc
# Method in brief: as §1
# [35] = molecular target: Neu5Ac(a2-3)Gal(b1-4)GlcNAc(b1-3)Gal(b1-4)GlcNAc(b1-3)Gal(b1-4)GlcNAc
# Method in brief: as §1
# [36] = molecular target: Neu5Ac(a2-3)Gal(b1-4)GlcNAc(b1-3)Gal(b1-4)[Fuc(a1-3)]GlcNAc
# Method in brief: as §1
# [37] = molecular target: Neu5Ac(a2-3)Gal(b1-4)GlcNAc6S
# Method in brief: as §1
binder,measurement,setting,value
B1,glycan array binding signal (z-score),[1],-0.283
same,glycan array binding signal (z-score),[2],-0.249
same,glycan array binding signal (z-score),[3],-0.45
same,glycan array binding signal (z-score),[4],-0.336
same,glycan array binding signal (z-score),[5],-0.245
same,glycan array binding signal (z-score),[6],-0.464
same,glycan array binding signal (z-score),[7],2.06
same,glycan array binding signal (z-score),[8],0.265
same,glycan array binding signal (z-score),[9],-0.294
same,glycan array binding signal (z-score),[10],0.064
same,glycan array binding signal (z-score),[11],-0.4
same,glycan array binding signal (z-score),[12],-0.014
same,glycan array binding signal (z-score),[13],0.965
same,glycan array binding signal (z-score),[14],-0.226
same,glycan array binding signal (z-score),[15],-0.2
same,glycan array binding signal (z-score),[16],0.372
same,glycan array binding signal (z-score),[17],0.406
same,glycan array binding signal (z-score),[18],-0.327
same,glycan array binding signal (z-score),[19],-0.401
same,glycan array binding signal (z-score),[20],-0.489
same,glycan array binding signal (z-score),[21],-0.253
same,glycan array binding signal (z-score),[22],-0.193
same,glycan array binding signal (z-score),[23],-0.503
same,glycan array binding signal (z-score),[24],-0.392
same,glycan array binding signal (z-score),[25],-0.235
same,glycan array binding signal (z-score),[26],-0.321
same,glycan array binding signal (z-score),[27],-0.227
same,glycan array binding signal (z-score),[28],-0.312
same,glycan array binding signal (z-score),[29],0.781
same,glycan array binding signal (z-score),[30],-0.461
same,glycan array binding signal (z-score),[31],-0.178
same,glycan array binding signal (z-score),[32],0.601
same,glycan array binding signal (z-score),[33],-0.411
same,glycan array binding signal (z-score),[34],-0.411
same,glycan array binding signal (z-score),[35],-0.415
same,glycan array binding signal (z-score),[36],0.846
same,glycan array binding signal (z-score),[37],-0.183
